The whole screen tested about 48,000 compounds, of which about 1,200 (2.5%) were called active. Not shown: some 2% with an inconclusive outcome.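 The calls were made as follows: active = activation of at least 60% and not above a set upper limit (about 1 call in 100 departs from these limits); inconclusive = activation of 40% to 60%, or above that upper limit; inactive = activation under 40%.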 The list shows a part of the results.

The target of the experiment is Probable G-protein coupled receptor 32 (Homo sapiens) (UniProt O75388). Description: qHTS for Agonists of Human Resolvin D1 Receptor DRV1. Also: 0% is about no effect. The note with it: CHO-K1 GPR32 beta-arrestin PathHunter luminescence, 90 min; at 76.9 µM; hits give high values; zero percent set by DMSO-only wells. A digest of the protocol: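 Readings come from a cell-based beta-arrestin complementation format: CHO-K1 GPR32 stable cells (2,500/well) treated 90 min with compounds, then beta-Gal substrate added for 1 h before chemiluminescence imaging.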
Sequence of UniProt O75388 (O75388 whole entry, looked up): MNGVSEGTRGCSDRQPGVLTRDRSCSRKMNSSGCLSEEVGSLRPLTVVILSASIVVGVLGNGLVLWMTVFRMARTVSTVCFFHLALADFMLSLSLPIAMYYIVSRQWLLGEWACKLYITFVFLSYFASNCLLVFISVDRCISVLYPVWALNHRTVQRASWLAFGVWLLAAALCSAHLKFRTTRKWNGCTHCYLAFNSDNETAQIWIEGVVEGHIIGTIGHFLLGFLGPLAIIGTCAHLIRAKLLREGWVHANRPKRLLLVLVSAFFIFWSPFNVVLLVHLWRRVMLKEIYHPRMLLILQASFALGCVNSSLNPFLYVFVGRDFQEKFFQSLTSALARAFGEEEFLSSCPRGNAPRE
For orientation: In qHTS, concentration-response curves come from the screen itself.
For the molecule `Cc1ccc(S(=O)(=O)NCCc2cn3c(C)csc3n2)cc1`, the activation was inactive: -6.07%.

Turning to `Cc1cccc(NC(=O)C2CCN(c3nnc(-n4c(C)ccc4C)s3)CC2)c1C`, the activation is inactive: -20.4%.

Turning to `COc1ccc(-c2nnc(C3CCN(C(=O)c4ccccc4F)CC3)o2)cc1`, the activation was inactive: -13.5%.

With `Cc1ccc2nc(-c3cc(NC(=O)c4ccc5c(c4)OCCO5)ccc3Cl)oc2c1`, the activation was inactive: -16.6%.

`COc1ccc(NC(=O)CCNS(=O)(=O)c2cccc3nsnc23)cc1`: the activation was inactive: -24.8%.

In the case of `COc1ccc(C2Sc3ccccc3NC3=C2C(=O)c2ccccc23)c(OC)c1OC` (centres undefined), the activation was inactive: -69%.

For the molecule `CCCCN(CC)CCNC(=O)c1cc2c(=O)oc3ccc(C)cc3c2s1`, the activation is inactive: 0.333%.

For `CCn1c(=O)c2cc(C(=O)NCCc3cc(OC)ccc3OC)sc2c2ccccc21`, the activation is inactive: 7.51%.

Regarding `O=C(NCc1cccc(F)c1)c1ccc(-n2cnc3cccnc32)cc1`, the activation was inactive: -7.22%.

Regarding `Cc1cccc(Cn2cc(C(=O)Nc3ccc(F)c(C(F)(F)F)c3)ccc2=O)c1`, the activation was inactive: 17.6%.

Regarding `CCc1ccc2oc(-c3ccc(NC(=O)c4ccc(OC)c(Br)c4)cc3)nc2c1`, the activation was inactive: -0.417%.

`Cc1ccc(-n2c(C)nc3c(cnn3-c3ccccc3C)c2=O)cc1F`: the activation is inactive: 9.15%.

Turning to `Cc1ccc(-c2cc(C(F)(F)F)n3nc(C(=O)Nc4ccc(Cl)c(C(F)(F)F)c4)cc3n2)cc1`, the activation was inactive: 5.23%.

With `Cn1cc(S(=O)(=O)c2ccccc2)c(=O)c2cc(F)c(N3CCN(c4ccccc4)CC3)cc21`, the activation is inactive: -9.31%.

Consider `Cc1cccc(-n2c(-c3ccccc3)cn3c4c(=O)[nH]c(=O)n(C)c4nc23)c1`, for which the activation was inactive: 2.93%.

For `Cc1cc(C)c(Cn2c3ccccc3c3cnn(CC(=O)N4CCCCCC4)c(=O)c32)c(C)c1`, the activation was inactive: -8.12%.

On to `Cc1cccc(C)c1OCC(=O)Nc1nc(-c2ccc(Br)cc2)ns1`, for which the activation is inactive: -8.89%.

For the molecule `O=C(Cn1c(=O)n(-c2cccc(Cl)c2)c(=O)c2sc3ccccc3c21)N1CCCC1`, the activation was inactive: -8.49%.

As to `CCOc1ccc(C(=O)Nc2c(C(=O)Nc3ccccc3F)oc3ccccc23)cc1OCC`, the activation is inactive: -1.53%.

Take `COC(=O)c1cc(C)nc2c1c(=O)nc(SCc1ccccc1F)n2C1CC1`: the activation was inactive: -15%.

In the case of `CCOC(=O)CN1C(=O)C(O)(CC(=O)c2cc(OC)ccc2OC)c2ccccc21` (centres undefined), the activation is inactive: 0.0068%.

Turning to `CCN(CC)CCCNC(=O)C1CCN(S(=O)(=O)CC)CC1`, the activation is inactive: -6.86%.

On to `O=S1(=O)c2ccccc2N(Cc2ccccc2)c2ccccc21`, for which the activation was inactive: 19.8%.

In the case of `CC(=O)c1ccc(NC(=O)c2c3c(nc4ccccc24)C(=O)N(C2CCCCC2)C3)cc1`, the activation is inactive: 33.5%.

The record behind these values is PubChem BioAssay AID1346428 (National Center for Advancing Translational Sciences (NCATS), 2018).
